PubChem BioAssay AID1030 (National Center for Advancing Translational Sciences (NCATS), 2008)
In all, about 220,000 compounds went through this assay and about 16,000 (7.3%) were called active. The shares of active, inactive and inconclusive entries below differ from those in the screen. Calls come from the whole dose curve; as a rule, active = well fitted inhibition curve with a large enough effect (not every such curve was filed as active); inconclusive = small, poorly fitted or top-dose-only effect, or another doubt; inactive = no such curve, though single readings can be large or run the other way. Potencies of inconclusive entries are left out as doubtful fits.
Potency is the fitted concentration of half-maximal effect; tags give direction and shape of the fitted curve.
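Throughout, for activity, negative = inhibition: plate controls were no enzyme wells and a reference inhibitor.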

What follows are compounds tested against Aldehyde dehydrogenase 1A1 (Homo sapiens) (UniProt P00352) (assay: qHTS Assay for Inhibitors of Aldehyde Dehydrogenase 1 (ALDH1A1)). Conditions: Purified ALDH1A1, NADH fluorescence, propionaldehyde substrate; series mostly up to 75.3 µM; activity, negative = inhibition: at the top concentration.
UniProt P00352, sequence (P00352 whole entry, looked up): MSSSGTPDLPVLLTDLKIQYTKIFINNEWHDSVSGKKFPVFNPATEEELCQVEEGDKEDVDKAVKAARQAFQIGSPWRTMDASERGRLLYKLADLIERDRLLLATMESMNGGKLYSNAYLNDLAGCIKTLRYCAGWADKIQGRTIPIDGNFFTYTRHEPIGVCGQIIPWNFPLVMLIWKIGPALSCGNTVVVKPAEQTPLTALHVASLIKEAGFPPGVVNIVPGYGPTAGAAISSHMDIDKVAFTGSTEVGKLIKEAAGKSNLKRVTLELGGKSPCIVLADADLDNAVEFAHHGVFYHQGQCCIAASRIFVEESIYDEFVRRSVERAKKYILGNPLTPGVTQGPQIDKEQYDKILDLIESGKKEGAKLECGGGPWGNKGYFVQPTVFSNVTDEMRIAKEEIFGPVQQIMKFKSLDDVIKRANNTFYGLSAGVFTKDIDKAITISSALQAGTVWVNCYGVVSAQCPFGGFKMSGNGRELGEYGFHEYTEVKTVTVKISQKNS
`CC(C)OC(=O)/C(=C\c1ccc2c(c1)c1ccccc1n2C)NC(=O)c1ccccc1` was tested, and the Potency was inconclusive [inhibitor, partial curve]. For `S=C(NCc1ccco1)N1CCC(c2nc3ccccc3o2)CC1`, the Potency was inconclusive [inhibitor, single point]. `CCOC(=O)c1sc(NC(=O)c2ccc(Br)o2)cc1C` was tested, and the Potency was inconclusive [inhibitor, single point]. For `O=C(C1=C[C@H](C2CC2)C[C@H](OCCCCO)O1)N1CCN(Cc2ccccc2)CC1`, the Potency was inconclusive [inhibitor, single point]. In the case of `Cc1cc2cc(CN(Cc3cccs3)S(=O)(=O)c3ccc4c(c3)OCCO4)c(=O)[nH]c2cc1C`, the “activity, negative = inhibition” value is reported as inactive: -0.0002%. For `CCOC(=O)C1=C(c2ccccc2)N=c2s/c(=C\c3cc(OC)c(OC)c(OC)c3)c(=O)n2C1c1cccs1` (stereo unspecified), the “activity, negative = inhibition” value was inactive: 3.28%. `Cc1ccc2nc(-c3ccccc3)cc(C(=O)O)c2c1` was tested, and the Potency was inconclusive [inhibitor, single point]. With `Cc1ccc(S(=O)(=O)N(CCC#N)C2CCCCC2)c2nsnc12` the Potency was inconclusive [inhibitor, single point]. With `COCc1cc(C)nc(SCC[N+](C)(C)CC(=O)Nc2ccccc2)c1C#N` the “activity, negative = inhibition” value was inactive: -10.8%. With `CCC(CC)c1nnc(NC(=O)c2cc(C(=O)OC)cc([N+](=O)[O-])c2)s1` the Potency was inconclusive [inhibitor, single point]. In the case of `Cc1cc2nc(-c3ccc(SCc4ccc(C#N)cc4)nc3)[nH]c2cc1C`, the Potency is reported as inconclusive [inhibitor, single point]. For `COc1ccc(-c2nnc3ccc(SC)nn23)cc1`, the Potency was inconclusive [inhibitor, partial curve]. `COc1cc(C2/C(=C(\O)c3cc(C)ccc3C)C(=O)C(=O)N2CCN(C)C)ccc1O` (stereo unspecified) was tested, and the Potency was inconclusive [inhibitor, single point]. `CCOc1ccc(/C=C2/SC(=S)N(C(C(=O)O)c3ccccc3)C2=O)cc1OCC` (stereo unspecified) was tested, and the Potency was inconclusive [inhibitor, partial curve]. In the case of `COc1ccc(CC(=O)N2CCCc3ccccc32)cc1OC`, the Potency is reported as inconclusive [inhibitor, partial curve]. `COc1ccccc1C1C=C(c2ccccc2)Nc2nnnn21` (stereo unspecified) was tested, and the Potency was inconclusive [inhibitor, single point]. For `CCCSc1nc2sc3c(c2c(=O)[nH]1)CCN(Cc1ccccc1)C3`, the Potency was inconclusive [inhibitor, partial curve]. In the case of `CCOC(=O)CN(C(=O)CSc1nnc(CNc2ccc(C)cc2C)n1CC)c1ccccc1`, the Potency is reported as inconclusive [inhibitor, partial curve]. For `Nc1ccccc1C(=O)NCCN1CCNC1=O`, the Potency was inconclusive [inhibitor, partial curve]. For `O=C1CC(Nc2ccc(N3CCOCC3)cc2)C(=O)N1CCc1ccccc1` (stereo unspecified), the Potency was active: 25.1 µM. `CCOC(=O)C1=C(CC)OC(N)=C(C#N)C1c1ccsc1` (stereo unspecified) was tested, and the “activity, negative = inhibition” value was inactive: -9.77%. In the case of `CCOC(=O)CSc1nc(N)c(C#N)cc1C#N`, the Potency is reported as inconclusive [inhibitor, single point]. In the case of `Cc1ccc2c(c1)c1nnc(SCC(=O)Nc3cccc(Cl)c3C)nc1n2CC(=O)O`, the Potency is reported as inconclusive [inhibitor, single point]. In the case of `COc1cccc(CN2CCN(Cc3nc(C(C)C)cs3)CC2CCO)c1` (stereo unspecified), the “activity, negative = inhibition” value is reported as inactive: 11.2%. For `CCN(CC)CCN(C(=O)c1ccccc1OC)c1nc2ccc(F)cc2s1`, the “activity, negative = inhibition” value was inactive: 7.15%. `O=C(c1ccc2c(=O)n(Cc3ccco3)c(=S)[nH]c2c1)N1CCN(c2ccccc2)CC1` was tested, and the Potency was inconclusive [inhibitor, partial curve, poor fit]. With `CCC/C=C(\CCC)C(NS(=O)(=O)CC12CCC(CC1=O)C2(C)C)c1ccc(C(=O)OC)cc1` (stereo unspecified) the Potency was active: 10 µM. `COCCNC(=O)CSc1nc2cc(OC)c(OC)cc2c(=O)n1CCC1=CCCCC1` was tested, and the Potency was inconclusive [inhibitor, single point]. For `CCOC(=O)c1ccc(NC(=O)Cn2nnc(-c3ccccc3)n2)cc1`, the Potency was active: 25.1 µM. With `O=C(CSc1nc2c(c(=O)n1-c1ccc(F)cc1)SCC2)NCc1ccco1` the “activity, negative = inhibition” value was inactive: 5.92%. In the case of `C=CCn1c(=S)[nH]c2sccc2c1=O`, the Potency is reported as active: 31.6 µM. `COC(=O)c1sc2cc(=O)n(-c3cccc(C(F)(F)F)c3)nc2c1O` was tested, and the “activity, negative = inhibition” value was inactive: 2.67%. With `O=C(O)COc1cccc2ccccc12` the Potency was inconclusive [inhibitor, single point]. With `COc1ccccc1C(C#N)N1N=C(C)CC1(C)C` (stereo unspecified) the Potency was inconclusive [inhibitor, single point]. With `COc1ccc(CCNC(=O)C2CC(c3cccc([N+](=O)[O-])c3)=NO2)cc1` (stereo unspecified) the Potency was inconclusive [inhibitor, single point]. For `COc1ccc(-c2noc(-c3ccc4c(c3)OCO4)n2)cc1`, the Potency was inconclusive [inhibitor, single point]. With `CC(=O)NC1(c2ccc(F)cc2)CCN(C(=O)Nc2ccc(F)cc2F)CC1` the “activity, negative = inhibition” value was inactive: 7.13%. For `Cc1ccc(C(=O)CCNc2ccccc2)o1`, the Potency was active: 15.8 µM. In the case of `Cc1nc(Cl)sc1C(=O)Nc1cccc(Cl)c1C`, the “activity, negative = inhibition” value is reported as inactive: -6.2%. `COc1ccc(N2C(=O)CC(Sc3nc(C)cc(C)c3C#N)C2=O)cc1` (stereo unspecified) was tested, and the Potency was inconclusive [inhibitor, single point]. In the case of `CSc1nc(N(C)NC(=O)c2ccccc2)c2ccccc2n1`, the Potency is reported as inconclusive [inhibitor, single point]. In the case of `O=C1S/C(=C\c2ccc(O)c([N+](=O)[O-])c2)C(=O)N1c1ccccc1Cl`, the Potency is reported as active: 0.447 µM. `CC1CN(C(=O)c2scc3c2OCCO3)CC(C)O1` (stereo unspecified) was tested, and the “activity, negative = inhibition” value was inactive: 8.77%. For `O=C(CSc1nnnn1-c1ccccc1)N1CCCc2ccccc21`, the Potency was active: 7.94 µM. In the case of `Cn1c(C(=O)NCCC2=CCCCC2)cc2c(=O)n3ccccc3nc21`, the Potency is reported as inconclusive [inhibitor, partial curve]. In the case of `N#Cc1c2c(c(NCCN3CCOCC3)n3c1nc1ccccc13)CCCC2`, the Potency is reported as inconclusive [inhibitor, single point].
